# Measurements: patent publication US11542275B2, “Substituted imidazolidin-2-one derivatives as PRMT5 inhibitors” (Aurigene Discovery Technologies Limited, priority 2018, dated 2023)
# Target: PRMT5/MEP50 Complex (Homo sapiens (Human), UniProt O14744)
# Assay: PRMT5 inhibition based on TR-FRET assay
# Format: biochemical
# Details: 32 nM PRMT5:MEP50 complex, 50 nM Histone-H4 peptide, 1 μM SAM, 90 minutes at room temperature
# Excerpt: Protein arginine methyltransferase 5 (PRMT5) is a type II arginine methyltransferase that catalyze mono- and symmetric demethylation on arginine residues of histone or non-histone proteins in presence of S-adenosylmethionine (AdoMet or SAM) a cofactor responsible for donating the methyl group. PRMT5 is reported to be overexpressed in several human cancers. To identify compounds that inhibit the PRMT5 and decrease its activity, a TR-FRET based assay has been established. Time-resolved fluorescence resonance energy transfer (TR-FRET) HTS assays are homogeneous proximity assays where the interaction of two dye-labeled binding partners is detected by the energy transfer between a donor and an acceptor dye, and the subsequent light emission by the acceptor dye. PRMT5 catalyzes Histone H4 peptide which is biotin tagged to the Lysine amino acid at carboxyl end, in presence of S-adenosyl-1-methionine (SAM) to methylate the peptide. The antibody specific to mono methylated H4 peptide (H4R3) with Ig conjugate binds to the methylated peptide, indirectly binding to the Europium lanthanide. SureLight Allophycocyanin-Streptavidin binds to the biotin tag of the peptide, therefore accepting the energy transferred from the Europium lanthanide. This energy transfer between Europium to SureLight Allophycocyanin is a direct measure of the activity/inhibition of the PRMT5 enzyme.
# Assay buffer: 20 mM BICINE (pH 7.6), 25 mM NaCl, 2 mM DTT, 0.01% Tween-20 and 0.01% BSA.
# The compound dilutions were prepared as 7.5% DMSO stock solutions in assay buffer. To 2 μL (7.5×) of test compound, 5 μL of PRMT5 enzyme prepared in assay buffer (Final concentration of 32 nM in 15 μL reaction volume) was added and allowed for 30 minutes pre-incubation time in a white polystyrene 384-well plate at room temperature. […] The plates were then read on Victor-3 with Excitation at 340 nm and Emissions collected at 615 and 665 nm in TR-FRET protocol. […]
row,IC50 [µM],SMILES
1,0.041,"CC(=O)N1CC(c2ccc(CN3CCN(C[C@H](O)CN4CCc5ccccc5C4)C3=O)nc2)C1 [Compound 79, (R)-1-((5-(1-acetylazetidin-3-yl)pyridin-2-yl)methyl)-3-(3-(3,4-dihydroisoquinolin-2(1H)-yl)-2-hydroxypropyl)imidazolidin-2-one]"
2,0.054,"CC1COCCC1c1ccc(CN2CCN(C[C@H](O)CN3CCc4ccccc4C3)C2=O)nc1 (stereo partly drawn) [Compound 68, 1-((R)-3-(3,4-dihydroisoquinolin-2(1H)-yl)-2-hydroxypropyl)-3-((5-(3-methyltetrahydro-2H-pyran-4-yl)pyridin-2-yl)methyl)imidazolidin-2-one]"

row,SMILES,IC50 [µM]
1,"CC(=O)N1C2CCC1CC(c1ccc(CN3CCN(C[C@H](O)CN4CCc5ccccc5C4)C3=O)cn1)C2 (stereo partly drawn) [Compound 73, 1-((6-(8-acetyl-8-azabicyclo[3.2.1]octan-3-yl)pyridin-3-yl)methyl)-3-((R)-3-(3,4-dihydroisoquinolin-2(1H)-yl)-2-hydroxypropyl)imidazolidin-2-one]",0.039
